Laboratory results: article PMC3834829
These are yes or no findings as the source states them, for the method shown. In cells and extracts the contact can be indirect. Some entries that bind do so weakly or less than the wild type.

Chains of the proteins cited; added tags and fusions are not shown. Lines headed by an entry give the natural chain unless they say otherwise; changes in a name come on top.
UniProt Q9H165: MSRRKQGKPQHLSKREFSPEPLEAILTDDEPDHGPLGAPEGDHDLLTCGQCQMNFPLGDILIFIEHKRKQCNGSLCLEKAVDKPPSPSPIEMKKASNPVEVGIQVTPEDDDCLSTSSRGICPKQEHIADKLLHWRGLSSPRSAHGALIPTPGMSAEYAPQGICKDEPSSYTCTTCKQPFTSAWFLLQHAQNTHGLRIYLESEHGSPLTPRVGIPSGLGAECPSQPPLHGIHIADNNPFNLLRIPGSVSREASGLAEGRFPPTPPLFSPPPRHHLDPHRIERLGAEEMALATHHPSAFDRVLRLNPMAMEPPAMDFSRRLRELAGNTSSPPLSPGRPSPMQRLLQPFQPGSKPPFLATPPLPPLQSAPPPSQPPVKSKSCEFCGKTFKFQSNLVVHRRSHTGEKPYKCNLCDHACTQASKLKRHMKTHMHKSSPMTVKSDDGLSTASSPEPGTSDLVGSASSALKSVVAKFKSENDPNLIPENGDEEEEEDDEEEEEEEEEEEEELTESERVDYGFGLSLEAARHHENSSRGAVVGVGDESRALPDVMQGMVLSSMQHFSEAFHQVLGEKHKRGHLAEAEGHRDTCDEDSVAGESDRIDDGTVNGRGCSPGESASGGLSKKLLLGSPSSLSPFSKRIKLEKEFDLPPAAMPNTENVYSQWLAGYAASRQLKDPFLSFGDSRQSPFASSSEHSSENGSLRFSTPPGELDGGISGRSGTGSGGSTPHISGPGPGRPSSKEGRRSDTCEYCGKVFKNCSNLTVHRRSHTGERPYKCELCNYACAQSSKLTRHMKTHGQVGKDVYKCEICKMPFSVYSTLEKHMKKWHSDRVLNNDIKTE
UniProt Q9Y466: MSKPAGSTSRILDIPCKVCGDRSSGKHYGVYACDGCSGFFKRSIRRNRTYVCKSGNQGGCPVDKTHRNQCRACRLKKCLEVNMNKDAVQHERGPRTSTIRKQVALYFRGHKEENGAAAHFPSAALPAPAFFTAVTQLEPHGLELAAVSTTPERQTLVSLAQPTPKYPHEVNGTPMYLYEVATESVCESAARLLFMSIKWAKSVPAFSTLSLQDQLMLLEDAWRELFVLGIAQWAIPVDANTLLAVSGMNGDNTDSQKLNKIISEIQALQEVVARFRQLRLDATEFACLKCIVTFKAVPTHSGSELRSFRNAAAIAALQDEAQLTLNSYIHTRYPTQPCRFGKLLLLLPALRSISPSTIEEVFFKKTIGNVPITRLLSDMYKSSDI

Target: FLAG-BCL11A-XL L319A, HEK293 (UniProt Q9H165)
Assay: co-IP; HEK293 co-transfected; nuclear extracts in Triton X-100 lysis buffer; FLAG-tagged BCL11A-XL precipitated with anti-FLAG M2; Western blot

“HA-TLX, HEK293 (from UniProt Q9Y466 1-385)” was tested, and the binding was “binds”.
